# Results: the supplement of paper PMC3334620
# The full ranking holds about 33,000 sequences; the median of “E-score (-0.5 to 0.5)” is about -0.012, and the highest 2% start at about 0.27. This is one part of the list.
# Biological target: T1, Vhr1 (UniProt P40522)
# T1 sequence: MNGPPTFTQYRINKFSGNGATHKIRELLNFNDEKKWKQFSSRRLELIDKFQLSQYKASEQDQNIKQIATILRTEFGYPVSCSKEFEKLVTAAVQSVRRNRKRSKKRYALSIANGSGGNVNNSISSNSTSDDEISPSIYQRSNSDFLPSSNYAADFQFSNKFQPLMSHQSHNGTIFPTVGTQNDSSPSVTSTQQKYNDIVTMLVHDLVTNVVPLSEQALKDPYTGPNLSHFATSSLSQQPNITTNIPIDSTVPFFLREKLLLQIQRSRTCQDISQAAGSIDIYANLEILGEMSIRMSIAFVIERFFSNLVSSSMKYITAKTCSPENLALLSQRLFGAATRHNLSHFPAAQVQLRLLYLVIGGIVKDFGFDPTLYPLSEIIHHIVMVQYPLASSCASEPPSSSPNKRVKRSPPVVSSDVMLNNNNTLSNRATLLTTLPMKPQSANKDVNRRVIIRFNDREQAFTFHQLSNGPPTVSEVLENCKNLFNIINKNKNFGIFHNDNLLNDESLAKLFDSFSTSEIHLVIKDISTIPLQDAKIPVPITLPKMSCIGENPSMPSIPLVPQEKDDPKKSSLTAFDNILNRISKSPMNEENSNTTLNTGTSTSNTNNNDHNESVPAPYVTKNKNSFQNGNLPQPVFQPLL
# Assay: PBM E-score (8-mer binding enrichment) (E-score (-0.5 to 0.5)); higher = stronger / more preferred TF binding; most listed sequences are background and not binding sites
# Settings: protein concentration: 200 nM; construct: GST-full length
# Summary of the method: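 Each ungapped eight-base word and its reverse complement, pooled, received an E-score from the Universal PBM Analysis Suite. Underlying scans, normalised with masliner, recorded fluorescent anti-GST bound to GST-tagged yeast transcription factors. These were applied at about 100-200 nM to universal all-10-mer Agilent arrays double-stranded by primer extension.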
row,Sequence,PBM E-score
1,AGGCCACG,0.0465
2,TAGCGCGA,0.164
3,CGATAGTA,0.235
4,ACGGGAAC,-0.0727
5,AGAAGGAA,-0.208
6,ACGTGTTA,-0.0598
7,AGCGTTAA,-0.178
8,AGATAGCA,-0.00092
9,CTAGGCGA,-0.0182
10,GACTTTAC,0.095
11,ATTGTTCA,0.00212
12,TATACAAA,0.068
13,GTCGACAA,-0.0547
14,CCAATGAG,-0.145
15,AGCTGTCG,-0.188
16,ACAAGTTC,-0.0427
17,ACCGAGAG,0.0506
18,AACGGACC,-0.182
19,CCGAAGAG,-0.201
20,GGGCGTGA,0.297
21,GCCGCTTA,0.0714
22,AGCCAGAT,-0.0809

row,Sequence,PBM E-score
1,GGAACTAA,-0.14
2,AATTACGC,-0.0867
3,CTGACGGC,-0.122
4,AGGCAAAA,-0.128
5,ATCACAGA,0.148
6,CGCTCGCA,0.0706
7,AAAACAGA,-0.0965
8,ACTCTGTC,0.052
9,GCCACGAA,-0.125
10,ATACTTTC,-0.0068
11,CTTGATAA,0.0306
12,GTCAGCAC,0.0584
13,TAATCCAA,0.132
14,CCCCAAAC,-0.106
15,ACTCGAAG,-0.13
16,CCCTCTCA,-0.302
17,CCCGAGTA,0.184
18,ACCCCCAT,-0.147
19,ATATGTCC,0.00501
20,CTTCCTAA,-0.328
21,CCGCACTA,0.112
22,CGTGGGAG,0.0618

row,Sequence,PBM E-score
1,CCGAACCC,-0.0768
2,ACCCTTGA,-0.157
3,ACAATGCG,0.113
4,ACAGTGTA,0.204
5,GAGTTGCC,-0.00989
6,CCTATGAG,-0.018
7,AAGACGTC,-0.133
8,AGATGACG,-0.0386
9,AGAGCGAC,0.0123
10,AAAAACGC,0.0266
11,ACCTGCAG,-0.0632
12,AACTGTCA,-0.0442
13,AGTTGCGA,0.00943
14,CATCTCGC,0.0798
15,AGCTAGTC,0.197
16,CCCTCGAG,-0.0173
17,TCACGTCA,0.039
18,TTTGCAAA,-0.151
19,GTCTAGCA,0.0138
20,AGTGGGGC,0.124
21,GAAGTGCA,-0.0763
22,AAGATAAT,-0.0906

row,Sequence,PBM E-score
1,GCGGTCAA,-0.00367
2,CCGCGGTC,0.0321
3,GCCCTAGC,-0.121
4,CATATTTA,0.212
5,TAAAGTGA,0.164
6,ACGGTAAA,-0.285
7,ACTCCAAG,0.0874
8,CAACTAAG,-0.0982
9,GCTGCGCC,0.0437
10,TTACGTAA,-0.295
11,AGCCCTTC,-0.331
12,CAGCTGCA,-0.344
13,CAAGTCTC,-0.195
14,ACGTCCAC,-0.21
15,GAACCAAA,-0.0377
16,AGCATAAA,-0.161
17,AGCAGTCG,-0.0524
18,AAAGGTAT,-0.0543
19,AGCCACCC,0.175
20,ACCGAAAT,-0.139
